Molecular target: T1, ClfA35-559 from pETM-10 (for ELISA) (S. aureus, UniProt Q53653 35-559)
T1 construct: Clumping factor A of S. aureus, 1576 bp amplified from genomic DNA (GenBank Z18852.1)
T1 sequence: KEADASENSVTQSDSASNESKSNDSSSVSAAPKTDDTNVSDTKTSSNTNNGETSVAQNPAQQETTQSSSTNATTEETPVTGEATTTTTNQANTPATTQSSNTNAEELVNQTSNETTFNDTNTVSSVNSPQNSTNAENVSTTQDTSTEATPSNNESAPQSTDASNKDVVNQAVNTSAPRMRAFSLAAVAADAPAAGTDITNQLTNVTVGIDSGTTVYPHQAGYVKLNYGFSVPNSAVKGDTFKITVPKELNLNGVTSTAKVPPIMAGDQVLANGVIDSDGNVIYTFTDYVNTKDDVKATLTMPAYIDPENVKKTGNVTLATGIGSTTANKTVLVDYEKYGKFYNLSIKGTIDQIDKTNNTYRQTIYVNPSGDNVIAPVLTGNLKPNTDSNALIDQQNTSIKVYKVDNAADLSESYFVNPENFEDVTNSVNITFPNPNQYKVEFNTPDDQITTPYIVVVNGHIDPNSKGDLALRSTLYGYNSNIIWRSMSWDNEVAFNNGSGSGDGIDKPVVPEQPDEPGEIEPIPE
Experiment: ELISA; plates coated with 1 μg/well ClfA in PBS overnight at 4 °C, blocked with 2% BSA in PBS-T; AnnexinA2 or BSA (0–2000 nM) 1 h at RT; detected with anti-AnnexinA2 antibody and HRP secondary; triplicate
Conditions: both partners purified

B1: AnnexinA2 from pETM-10 (for ELISA) (natural protein)
chain: not shown
notes: the forward primer begins at the codon of Ser2 (tct acc gtt cat gaa att), the reverse primer runs to the stop codon
Kd: 418 nM
